Where a name gives a salt, the structure may show the parent alone. This is one part of the list. Repeats are few or missing, and single values can be far off.
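Note: stationary (unshaken) cultures in 96-well plates, started at OD600 0.05 from mid-exponential cells, with compounds supplied from DMSO stocks.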

This assay relates to Escherichia coli W3110. As to the kind of experiment: planktonic growth (OD600) relative to untreated control; higher = more growth. The settings on record: 10 µM; 20-24 h; 30 °C; TB.
Consider `NC(=O)N/N=C/c1ccc([N+](=O)[O-])o1` [Nitrofural], for which the planktonic growth amounted to 88%.

In the case of `CN1CCCCC1CCN1c2ccccc2Sc2ccc([S+](C)[O-])cc21` (configuration not stated) [Mesoridazine besylate], the planktonic growth was 99%.

For `CN1CCCC(n2nc(Cc3ccc(Cl)cc3)c3ccccc3c2=O)CC1` (configuration not stated) [Azelastine hydrochloride], the planktonic growth is 96%.

Turning to `CN(C)CCC[C@@]1(c2ccc(F)cc2)OCc2cc(C#N)ccc21` [Escitalopram oxalate], the planktonic growth was 92%.

Regarding `CCCC(=O)Nc1ncnc2c1ncn2[C@@H]1O[C@@H]2COP(=O)(O)O[C@H]2[C@H]1OC(=O)CCC` [Bucladesine sodium salt], the planktonic growth is 92%.

Turning to `CC(=O)Oc1cccc2c1C(=O)c1c(OC(C)=O)cc(C(=O)O)cc1C2=O` [Diacerein], the planktonic growth was 104%.

In the case of `CCC[C@H](N[C@@H](C)C(=O)N1[C@H](C(=O)O)C[C@@H]2CCCC[C@@H]21)C(=O)OCC` [Perindopril], the planktonic growth was 94%.

`COc1ccc(NS(=O)(=O)c2ccc(N)cc2)nn1` [Sulfamethoxypyridazine] gave a planktonic growth of 68%.

`Nc1ccc(C(=O)NCC(=O)O)cc1` [Aminohippuric acid]: the planktonic growth is 94%.

`CC1(C)OC(=O)NC1=O` [Dimethadione] came in with a planktonic growth of 99%.

As for `N=C(N)NCC1COC2(CCCCC2)O1` (configuration not stated) [Guanadrel sulfate], the planktonic growth is 105%.

Regarding `Nc1ccc(S(=O)(=O)c2ccc(N)cc2)cc1` [Dapsone], the planktonic growth was found to be 76%.

Consider `OCCN1CCN(CCCN2c3ccccc3Sc3ccc(Cl)cc32)CC1` [Perphenazine], for which the planktonic growth came out at 106%.

The compound `CN(C)CCc1c[nH]c2ccc(Cn3cncn3)cc12` [Rizatriptan benzoate] yielded a planktonic growth of 93%.

In turn, `c1ccc(C2CN3CCSC3=N2)cc1` (configuration not stated) [Tetramisole hydrochloride] returned a planktonic growth of 93%.

As to `C=C1c2cccc(O)c2C(=O)C2=C(O)[C@]3(O)C(=O)C(C(N)=O)=C(O)[C@@H](N(C)C)[C@@H]3[C@@H](O)[C@H]12` [Methacycline hydrochloride], the planktonic growth stood at 23%.

`Cn1c(=O)c2nc[nH]c2n(C)c1=O` [Theophylline monohydrate] came in with a planktonic growth of 97%.

The compound `Cc1scc2c1N(C(=O)CN1CCN(C)CC1)c1ccccc1NC2=O` [Telenzepine dihydrochloride] registered a planktonic growth of 94%.

`CC(=O)c1ccc(S(=O)(=O)NC(=O)NC2CCCCC2)cc1` [Acetohexamide]: the planktonic growth came to 89%.

On to `CCCCC[C@H](O)/C=C/[C@@H]1[C@@H](C/C=C\CCCC(=O)O)[C@@H](O)C[C@H]1O` [Dinoprost trometamol], for which the planktonic growth turned out to be 89%.

`CC(COc1ccccc1)N(CCCl)Cc1ccccc1` (configuration not stated) [Phenoxybenzamine hydrochloride] returned a planktonic growth of 104%.

In the case of `COc1ccc(CN(CCN(C)C)c2ccccn2)cc1` [Pyrilamine maleate], the planktonic growth amounted to 105%.

Take `CCCNC(C)C(=O)Nc1ccccc1C` (configuration not stated) [Prilocaine hydrochloride]: the planktonic growth is 95%.

Compound `Cc1cc(=O)oc2cc(O)ccc12` [Hymecromone] had a planktonic growth of 91%.

Regarding `CCOC(=O)c1ccc(OC(=O)CCCCCNC(=N)N)cc1` [Gabexate mesilate], the planktonic growth was 105%.

As for `CCCN[C@H]1CCc2nc(N)sc2C1` [Pramipexole dihydrochloride], the planktonic growth turned out to be 93%.

`COC1=C(OC)C(=O)C(CCCCCCCCCCO)=C(C)C1=O` [Idebenone] came in with a planktonic growth of 105%.

As for `CCOC(=O)[C@H](CCc1ccccc1)N[C@H]1CCc2ccccc2N(CC(=O)O)C1=O` [Benazepril hydrochloride], the planktonic growth was found to be 96%.

`CCOC(=O)OC(C)OC(=O)[C@@H]1N2C(=O)[C@@H](NC(=O)[C@H](N)c3ccccc3)[C@H]2SC1(C)C` (some centres not stated) [Bacampicillin hydrochloride] returned a planktonic growth of 47%.

`CC(C)(C)NC[C@H](O)COc1nsnc1N1CCOCC1` [Timolol maleate salt] came in with a planktonic growth of 94%.

The compound `O=C(Nc1cccc2c(=O)cc(-c3nnn[nH]3)oc12)c1ccc(OCCCCc2ccccc2)cc1` [Pranlukast] registered a planktonic growth of 112%.

Compound `NCCCC[C@H](N[C@@H](CCc1ccccc1)C(=O)O)C(=O)N1CCC[C@H]1C(=O)O` [Lisinopril] returned a planktonic growth of 93%.

In turn, `CC(C)C(=O)OCC(=O)[C@@]12O[C@H](C3CCCCC3)O[C@@H]1C[C@H]1[C@@H]3CCC4=CC(=O)C=C[C@]4(C)[C@H]3[C@@H](O)C[C@@]12C` [Ciclesonide] registered a planktonic growth of 104%.

Consider `CC(C)NCC(O)COc1ccc(COCCOC(C)C)cc1` (configuration not stated) [Bisoprolol fumarate], for which the planktonic growth was 112%.

The compound `Nc1nc(=S)c2ncn([C@@H]3O[C@H](CO)[C@@H](O)[C@H]3O)c2[nH]1` [Thioguanosine] came in with a planktonic growth of 82%.

On to `O=C1CN2Cc3c(ccc(Cl)c3Cl)N=C2N1` [Anagrelide], for which the planktonic growth was 104%.

`Nc1nc(F)nc2c1ncn2[C@@H]1O[C@H](CO)[C@@H](O)[C@@H]1O` [Fludarabine] had a planktonic growth of 38%.

Compound `CC[C@H]1OC(=O)[C@H](C)[C@@H](O[C@H]2C[C@@](C)(OC)[C@@H](O)[C@H](C)O2)[C@H](C)[C@@H](O[C@@H]2O[C@H](C)C[C@H](N(C)C)[C@H]2O)[C@](C)(O)C[C@@H](C)/C(=N\OCOCCOC)[C@H](C)[C@@H](O)[C@]1(C)O` [Roxithromycin] registered a planktonic growth of 53%.

In turn, `Nc1nc(=O)c2nc(CNc3ccc(C(=O)N[C@@H](CCC(=O)O)C(=O)O)cc3)cnc2[nH]1` [Folic acid] returned a planktonic growth of 96%.

With `CC(=O)N[C@@H](CC(C)C)C(=O)O` [N-Acetyl-L-leucine], the planktonic growth turned out to be 92%.

`COc1c(O[C@@H]2O[C@H](CO)[C@@H](O)[C@H](O)[C@H]2O)cc2c(c1OC)-c1ccc(SC)c(=O)cc1[C@@H](NC(C)=O)CC2` [Thiocolchicoside] showed a planktonic growth of 86%.

The compound `CN(C)CCN(Cc1cccs1)c1ccccn1` [Methapyrilene hydrochloride] registered a planktonic growth of 97%.

As for `NC(=O)N1c2ccccc2C=Cc2ccccc21` [Carbamazepine], the planktonic growth worked out at 94%.

`Clc1ccc(C(Cn2ccnc2)OCc2c(Cl)cccc2Cl)c(Cl)c1` (configuration not stated) [Isoconazole]: the planktonic growth was 97%.

In turn, `O=C(Cn1ccnc1[N+](=O)[O-])NCCO` [Etanidazole] gave a planktonic growth of 111%.

For the compound `CC(C)CC(=O)N[C@H](C(=O)N[C@H](C(=O)N[C@@H](CC(C)C)[C@@H](O)CC(=O)N[C@@H](C)C(=O)N[C@@H](CC(C)C)[C@@H](O)CC(=O)O)C(C)C)C(C)C` [Pepstatin A], the planktonic growth came out at 110%.

The compound `C[C@H](O)C(=O)Nc1c(I)c(C(=O)NC(CO)CO)c(I)c(C(=O)NC(CO)CO)c1I` [Iopamidol] had a planktonic growth of 106%.

`CC[C@H]1OC(=O)[C@H](C)[C@@H](O[C@H]2C[C@@](C)(OC)[C@@H](O)[C@H](C)O2)[C@H](C)[C@@H](O[C@@H]2O[C@H](C)C[C@H](N(C)C)[C@H]2O)[C@](C)(O)C[C@@H](C)[C@@H]2N[C@@H](COCCOC)O[C@H]([C@H]2C)[C@]1(C)O` [Dirithromycin] displayed a planktonic growth of 53%.

For `O=C1CC2(CCCC2)CC(=O)N1CCCCN1CCN(c2ncccn2)CC1` [Buspirone hydrochloride], the planktonic growth is 112%.

As for `Cc1cc(CC(=O)O)n(C)c1C(=O)c1ccc(Cl)cc1` [Zomepirac sodium salt], the planktonic growth came to 87%.

For the compound `O=C(NCC(O)CO)c1c(I)c(C(=O)NCC(O)CO)c(I)c(N(CCO)C(=O)CO)c1I` (configuration not stated) [Ioversol], the planktonic growth is 92%.

For `CO/N=C(\C(=O)N[C@@H]1C(=O)N2C(C(=O)O)=C(COC(N)=O)CS[C@H]12)c1ccco1` [Cefuroxime sodium salt], the planktonic growth stood at 32%.

With `Nc1ccc(S(=O)(=O)Nc2ccnn2-c2ccccc2)cc1` [Sulfaphenazole], the planktonic growth is 68%.

For `CC1Cc2ccccc2N1NC(=O)c1ccc(Cl)c(S(N)(=O)=O)c1` (configuration not stated) [Indapamide], the planktonic growth came out at 89%.

`CCN1CCC[C@H]1CNC(=O)c1c(OC)ccc(Br)c1OC` [Remoxipride Hydrochloride] had a planktonic growth of 97%.

On to `CCN1CCN(c2cc3c(cc2F)c(=O)c(C(=O)O)cn3C2CC2)CC1` [Enrofloxacin], for which the planktonic growth amounted to 21%.

`Cc1nnc(NS(=O)(=O)c2ccc(N)cc2)s1` [Sulfamethizole]: the planktonic growth came to 65%.

The compound `O=C(O)COC(=O)Cc1ccccc1Nc1c(Cl)cccc1Cl` [Aceclofenac] showed a planktonic growth of 91%.

Regarding `Cc1cnc(NC(=O)C2=C(O)c3ccccc3S(=O)(=O)N2C)s1` [Meloxicam], the planktonic growth stood at 109%.

Take `COCCOC(=O)C1=C(C)NC(C)=C(C(=O)OC/C=C/c2ccccc2)C1c1cccc([N+](=O)[O-])c1` (configuration not stated) [Cilnidipine]: the planktonic growth turned out to be 105%.

Consider `CCCCNc1ccc(C(=O)OCCOCCOCCOCCOCCOCCOCCOCCOCCOC)cc1` [Benzonatate], for which the planktonic growth is 87%.

`CCn1nc(C(=O)O)c(=O)c2cc3c(cc21)OCO3` [Cinoxacin] registered a planktonic growth of 47%.

The compound `Cc1cc(/C=C/c2ccc3cc(N(C)C)ccc3[n+]2C)c(C)n1-c1ccccc1` [Pyrvinium pamoate] showed a planktonic growth of 101%.

`CCCc1nc(C)c2c(=O)nc(-c3cc(S(=O)(=O)N4CCN(CC)CC4)ccc3OCC)[nH]n12` [Vardenafil] displayed a planktonic growth of 77%.

On to `O=C(O)/C=C/c1ccc(Cn2ccnc2)cc1` [Ozagrel hydrochloride], for which the planktonic growth was 95%.

`C[C@H]1C[C@H]2[C@@H]3CCC4=CC(=O)C=C[C@]4(C)[C@@]3(F)[C@@H](O)C[C@]2(C)[C@@]1(O)C(=O)CO` [Betamethasone] registered a planktonic growth of 103%.

As for `Oc1ccc(OCc2ccccc2)cc1` [Monobenzone], the planktonic growth stood at 100%.

Turning to `CC(C(=O)O)c1ccc(N2Cc3ccccc3C2=O)cc1` (configuration not stated) [Indoprofen], the planktonic growth was 96%.

In the case of `CC1=Nc2ccc(Cl)cc2S(=O)(=O)N1` [Diazoxide], the planktonic growth amounted to 107%.

As for `C=C1/C(=C\C=C2/CCC[C@]3(C)[C@@H]([C@H](C)/C=C/[C@@H](O)C4CC4)CC[C@@H]23)C[C@@H](O)C[C@@H]1O` [Calcipotriene], the planktonic growth stood at 97%.

Take `Cc1ccc(Cl)c(Nc2ccccc2C(=O)O)c1Cl` [Meclofenamic acid sodium salt monohydrate]: the planktonic growth came out at 103%.

Turning to `O=C(NCCO[N+](=O)[O-])c1cccnc1` [Nicorandil], the planktonic growth turned out to be 93%.

For the origin of these results see the supplement of paper PMC7580552.
